Source: the supplement of paper PMC5499739
Over roughly 16,000 sequences, “Z-score” has its median near -0.37; the highest 2% begin near 3.2. The list shows a part of the results.

tested on: RBM10 RRM1-ZnF (GST-tagged construct); test: RNAcompete 7-mer binding Z-score; higher = stronger binding preference
In short: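 In 1 ml Hepes pH 7.8 buffer with KCl, NaCl, glycerol, DTT, BSA and glutathione Sepharose beads, GST-tagged RBM10 constructs (20 pmol) were incubated for 30 min at 4°C with 1.5 nmol of a designed pool of 241 399 RNAs up to 41 nt. Four 2-min washes at 4°C followed, and bound RNA was detected by microarray hybridisation. Heptamer motif enrichment was expressed as a one-sided Z-score across probes containing each motif.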

Sequence	RNAcompete 7-mer binding Z-score
GACCUAA	-0.828
CCGGGGG	1.54
GUUAACA	0.017
GACAUAC	-0.243
UCCCUGG	-0.24
UGCCGUC	-0.6
CUACGGC	-0.288
GUAUCCA	-0.402
GACCUGC	-0.854
CCGCGGG	0.732
GGAGGGA	4.01
AUUACAU	-0.516
UUGGGCU	1.43
GGAAGUU	1.14
CCACCCC	-0.305
ACCACAA	-0.72
AAGAUGC	-0.00246
AUUGAUA	-0.11
GCACGGA	0.933
GGUCCUA	-0.425
UCGGUUG	0.693
UUCCGCA	-0.824
ACCUCAU	-0.733

Sequence	RNAcompete 7-mer binding Z-score
UCAUUAA	-0.509
AGCAGGC	0.537
CAGAAGA	-0.0187
GUACAGC	-0.0414
GGUAAUG	2.97
UUAAUGC	-0.623
CAAAAAA	-0.448
CGCAGAA	0.00404
UCUGAUC	-0.74
ACAAGCU	-0.746
UCGGUCA	-0.347
CGCCUCG	-0.522
CGCUUCG	-0.724
GUAAGGA	2.67
GCGAUGG	2.03
CGAUUCU	-0.746
CACUGAU	-0.477
AGCUCUA	-0.629
UUGGCGG	1.51
UGCUAGU	-0.418
AAGAGUG	1.46
CCCCGAA	-0.49
UAAUCUC	-0.847

Sequence	RNAcompete 7-mer binding Z-score
UUUUCGG	-0.214
UUGGAGA	1.21
GCUAAUG	0.017
UGGAUAC	1.66
AUUCGUU	-0.62
GUGCGGC	0.897
UCCCAAG	-0.607
AUUUGCC	-0.867
GCGCUUC	-0.516
UCCGGCC	-0.811
GUUACCG	-0.0999
CCGGUAA	-0.0642
CCACCGG	-0.113
AAUUGGG	2.54
UAGUGAA	0.563
UGCGUUC	-0.633
GUAGCCC	-0.282
UACACUC	-0.548
ACGACUG	-0.136
AGGACUG	0.521
AUCUUGG	-0.227
UCGGAGU	0.131
GUUCAUU	-0.47

Sequence	RNAcompete 7-mer binding Z-score
GAGUACU	-0.246
UGGUUUU	1.08
UUGCCAG	-0.5
CGCCCAG	-0.451
GAGCUUC	-0.681
UCCCGCG	-0.591
CCCUCGG	-0.0967
AGCCCGU	-0.779
GAACAAA	-0.233
AUAUGGA	1.85
CCCGAGA	-0.516
CAGGAGA	1.93
GCACUUG	-0.227
ACCAAAG	-0.37
AUGUGAC	0.0463
CGUAAGA	-0.542
CUCGAUG	-0.402
GAGGCCA	-0.0577
CACGCGU	-0.318
AUUCGCU	-0.805
GGCUACC	-0.188
CUACAAA	-0.516
GAACCGC	-0.574

Sequence	RNAcompete 7-mer binding Z-score
CAGCUUA	-0.707
UGAUGAA	0.423
CCCACAC	-0.548
GUUCUAG	-0.23
CUGGUCU	-0.347
CUUAAGC	-0.841
GGCGAUU	0.131
CUGUGAC	-0.428
GCAUAGG	1.8
UUGGUUA	0.615
UCCUGUU	-0.815
CCUAGUG	-0.266
AAGCCAC	-0.522
CCUUGUC	-0.756
UGCUCGC	-0.493
GAGAUUC	-0.311
GCCGCAU	-0.642
AUCAUCA	-0.5
AGUGGGC	2.67
CCGAAUU	-0.815
UGGGAAG	4.03
AUUGCGC	-0.578
CGUCAAU	-0.73

Sequence	RNAcompete 7-mer binding Z-score
GUGAUUA	0.352
CUACAGA	-0.636
AGUGUGG	2.95
CACACCC	-0.5
UUCUAUU	-0.737
CGGAAUG	1.27
GUGGCUG	1.05
UCGAGUC	-0.513
UCCUGGG	0.498
UCUGUCC	-0.795
UCCGUUC	-0.694
CCAGUUG	-0.513
GAAGGGA	4.52
AGUGGGU	3.49
GGUUGAC	1.2
CCUACAA	-0.724
AAGCUCC	-0.646
CUAUAGA	-0.496
CGUGCUG	-0.149
UCCUUAA	-0.815
AGGCUAG	0.527
AGCUGAU	-0.0642
UAAUAGU	-0.256

Sequence	RNAcompete 7-mer binding Z-score
UCGUUAA	-0.629
GCAAUUC	-0.62
UACCGCU	-0.782
GAUGGUA	2.28
GUGGGUC	2.36
UUACGAA	-0.561
UACAGGC	0.173
AGGCAUG	0.774
UAAAAUC	-0.678
GGUGAUG	2.87
UUUCUUG	-0.707
UCCUAGC	-0.753
CAAGAUA	-0.578
GACAGCA	-0.00896
CGUGGAC	1.09
AACUAGC	-0.477
AUUUUUG	-0.604
GAACUUG	-0.275
GAGGAAA	2.27
UUCUCAC	-0.769
CCCGCUU	-0.659
CGAUUGA	-0.233
AUUUAUU	-0.698

Sequence	RNAcompete 7-mer binding Z-score
CUGGACU	-0.383
AAACCUA	-0.746
ACAGAUU	-0.363
UCGCAAA	-0.698
AUUGAAG	0.222
AUUUUUC	-0.818
GAUGAAU	0.803
CUCCCUU	-0.753
AGACGUA	-0.207
AAUACUA	-0.626
UCCAGGA	0.192
UUAGUAC	-0.477
GACUUGC	-0.821
AGCAGUU	-0.227
GGUCAUU	-0.136
AUGAUUU	-0.681
AUCUACC	-0.824
GGAUCUA	-0.0382
AGUCGCC	-0.36
UCACAAC	-0.568
GCGGAGU	1.4
CUAUACA	-0.571
